PubChem BioAssay (NCATS)
The other results are listed elsewhere or left out. Shown are side measurements of this screen, not its main read-out; they come without a call. Most of these compounds were active or inconclusive in the main read-out, so they are no random draw.

assay: qHTS Assay for Lipid Storage Modulators (AID 1519); settings: Drosophila S3 cells, BODIPY lipid droplet/cell ratio, laser cytometry; measured here: lipid channel max response; cells loaded with oleic acid
In short: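 Cells seeded at 5,000 per well were treated with compounds over a concentration series and loaded with oleic acid (400 uM, as added). Lipid droplet fluorescence (488 nm excitation, 500-530 nm channel) was read by laser-scanning cytometry and normalized to 20 uM Triacsin C.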

Row | SMILES | max response [%]
1 | CCCCCCCCCCCC(CC1OC(=O)C1CCCCCC)OC(=O)C(CC(C)C)NC=O (stereo not given) | 1.88
2 | O=C(O)CCC(=O)c1ccc(-c2ccccc2)cc1 | 55.2
3 | CC(C[N+](C)(C)C)OC(N)=O (stereo not given) | 53.4
4 | O=C(O)c1cc(O)c2c(c1)[C@H]([C@H]1c3cc(C(=O)O)cc(O)c3C(=O)c3c(O[C@@H]4OC(CO)C(O)C(O)C4O)cccc31)c1cccc(O[C@@H]3OC(CO)C(O)C(O)C3O)c1C2=O (stereo not given in full) | 34.3
5 | COc1cccc(-c2ccc3ncnc(NCc4ccc(OC)cc4OC)c3c2)c1 | 14.6
6 | O=C(c1ccco1)N1CCC2(CCN(Cc3cc(C(F)(F)F)cc(C(F)(F)F)c3)CC2)CC1 | 15.1
7 | c1cc2c3c(c1)c1c(n3CCNC2)CCCC1 | 136
8 | OCC1O[C@H](O[C@H]2C(O)C(O)C(O)O[C@@H]2CO)C(O)C(O)C1O (stereo not given in full) | 36.5
9 | Cc1c(Nc2ncccc2C(=O)O)cccc1C(F)(F)F | 48.3
10 | Cc1cccc(CNc2cc(-c3ccccc3C)ncn2)c1 | -35.2
11 | CSc1ccc2c(c1)[C@H](N1CCN(C)CC1)Cc1ccccc1S2 | 75.1
12 | C=C(NC(=O)C(=C)NC(=O)c1csc(C2=N[C@@H]3c4csc(n4)[C@@H]4NC(=O)c5csc(n5)[C@@H]([C@](C)(O)[C@H](C)O)NC(=O)[C@@H]5CSC(=N5)/C(=C/C)NC(=O)[C@@H]([C@H](C)O)NC(=O)c5csc(n5)[C@]3(CC2)NC(=O)[C@@H](C)NC(=O)C(=C)NC(=O)[C@@H](C)NC(=O)[C@@H]([C@@H](C)CC)N[C@H]2C=Cc3c([C@H](C)O)cc(nc3[C@@H]2O)C(=O)O[C@H]4C)n1)C(N)=O | -69.3
13 | CC[C@@]1(O)CC2CN(CCc3c([nH]c4ccccc34)[C@](C(=O)OC)(c3cc4c(cc3OC)N(C)C3[C@@](O)(C(=O)OC)C(OC(C)=O)[C@]5(CC)C=CCN6CC[C@@]43C65)C2)C1 (stereo not given in full) | 35.2
14 | CN1CCN(C2=Cc3ccccc3Oc3ccc(Cl)cc32)CC1 | 61.4
15 | CN1C(C(=O)Nc2ccccn2)=C(O)c2sccc2S1(=O)=O | 46
16 | O=C(Nc1ccccc1)N1CCCC2(CCN(C(=O)c3cccc(F)c3)CC2)C1 | 30.3
17 | CN(C)C(=O)Nc1ccc(Cl)c(Cl)c1 | 40.1
18 | NCCS | 31.8
19 | O[C@H](CN1CCN(c2cccc(Cl)c2)CC1)C(c1ccccc1)c1ccccc1 | 67.2
20 | COc1c2occc2c(OC)c2c(=O)cc(C)oc12 | 39.6

Row | SMILES | max response [%]
21 | CCCCCCC[N+](CC)(CC)CCCCc1ccc(Cl)cc1 | -43.6
22 | COC(=O)N1CCC2(CCN(C(=O)Nc3ccc(OC)cc3)CC2)CC1 | 26
23 | COC(=O)N1CCC2(CCCN(C(=O)Nc3ccccc3)C2)CC1 | 12.1
24 | COc1cccc(-c2nccc(NCc3cccs3)n2)c1 | 5.38
25 | CC(=O)Oc1cc(C(F)(F)F)ccc1C(=O)O | -1.4
26 | c1ccc(CNc2ncncc2-c2ccc3c(c2)OCO3)cc1 | 12
27 | OCC1O[C@H](Oc2ccc(O)cc2)C(O)C(O)C1O (stereo not given in full) | 25.3
28 | CN(C)CCN(Cc1cccs1)c1ccccn1 | 53.9
29 | c1ccc(-c2ccc(N3CCCC4(CCNCC4)C3)cc2)cc1 | -17.3
30 | Cc1ccccc1-c1ccc2ncnc(NCc3cccs3)c2c1 | -0.433
31 | c1ccc(N2CCN(CCCOc3ccc4c(c3)OCO4)CC2)cc1 | 149
32 | CCCCCN=c1ccn(Cc2ccccc2)c2ccccc12 | -84.3
33 | C(=C\c1ccccc1)/CN1CCN(C(c2ccccc2)c2ccccc2)CC1 | -43.6
34 | Cn1cccc1C(=O)N1CCC2(CCCN(c3ncccn3)C2)CC1 | 26.8
35 | Cc1ccccc1-c1ccc2ncnc(NCc3cccnc3)c2c1 | 10.2
36 | N#Cc1cccc(NC(=O)N2CCCC3(CCN(C(=O)c4csnn4)CC3)C2)c1 | 33.8
37 | COc1ccccc1CNc1ncncc1-c1ccccc1C(F)(F)F | 30.8
38 | O=C(c1cccc(F)c1)N1CCC2(CC1)CCN(c1ccccn1)CC2 | 18.9
39 | COc1cccc(Cn2c(=O)c(-c3cccs3)nc3cnc(Nc4ccccc4)nc32)c1 | -57
40 | O=NN(CCCl)C(=O)NCCCl | 31.9
